Assay results reported in paper PMC4336329 (PLoS ONE, 2015).
Screen size: about 310,000 compounds; about 14,000 (4.5%) showed an effect of 50% or more. Effects have a minus sign here. Some of the results follow.

These compounds were tested against human ether-à-go-go-related gene (hERG) potassium channel (human, UniProt Q12809) (assay: primary screen, population patch clamp on CHO cells stably expressing hERG).
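Also: peak tail current of the secondary pulse compared with the same well before compound.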

Sequence of human ether-à-go-go-related gene (hERG) potassium channel (Q12809 whole entry, looked up): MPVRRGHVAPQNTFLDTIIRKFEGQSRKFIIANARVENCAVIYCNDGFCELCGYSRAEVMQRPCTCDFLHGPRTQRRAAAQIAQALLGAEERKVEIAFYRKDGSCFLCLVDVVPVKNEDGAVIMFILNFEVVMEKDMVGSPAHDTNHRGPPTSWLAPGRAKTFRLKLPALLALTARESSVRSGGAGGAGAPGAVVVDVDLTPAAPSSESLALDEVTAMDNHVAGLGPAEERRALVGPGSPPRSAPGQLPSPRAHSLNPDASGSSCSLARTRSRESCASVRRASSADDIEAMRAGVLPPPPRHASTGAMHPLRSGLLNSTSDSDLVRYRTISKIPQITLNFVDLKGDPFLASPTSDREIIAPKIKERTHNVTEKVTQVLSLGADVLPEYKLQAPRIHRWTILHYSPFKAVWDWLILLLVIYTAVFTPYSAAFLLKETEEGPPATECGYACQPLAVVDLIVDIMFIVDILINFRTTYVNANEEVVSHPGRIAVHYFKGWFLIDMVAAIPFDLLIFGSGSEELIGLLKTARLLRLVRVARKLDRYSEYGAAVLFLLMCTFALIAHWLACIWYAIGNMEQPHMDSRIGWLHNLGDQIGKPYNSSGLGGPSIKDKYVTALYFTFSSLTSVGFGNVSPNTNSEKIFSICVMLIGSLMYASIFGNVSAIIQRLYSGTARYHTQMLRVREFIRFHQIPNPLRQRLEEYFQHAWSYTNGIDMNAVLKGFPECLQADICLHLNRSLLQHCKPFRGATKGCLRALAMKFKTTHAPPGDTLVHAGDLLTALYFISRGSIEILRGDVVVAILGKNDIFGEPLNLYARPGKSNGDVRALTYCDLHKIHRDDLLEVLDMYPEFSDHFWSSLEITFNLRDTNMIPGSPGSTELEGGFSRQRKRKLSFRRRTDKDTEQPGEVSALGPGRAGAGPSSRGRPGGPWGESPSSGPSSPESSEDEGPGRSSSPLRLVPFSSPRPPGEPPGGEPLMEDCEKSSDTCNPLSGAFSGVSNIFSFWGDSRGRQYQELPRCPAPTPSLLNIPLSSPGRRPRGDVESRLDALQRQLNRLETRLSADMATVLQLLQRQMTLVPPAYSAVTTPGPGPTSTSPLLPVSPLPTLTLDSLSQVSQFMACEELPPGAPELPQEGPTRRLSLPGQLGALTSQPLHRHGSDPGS

Row | SMILES | hERG current change (%, negative = inhibition) at 10uM
1 | CC1(C)CC2CC(C)(CN2S(=O)(=O)c2ccc(C(=O)Nc3cc(S(=O)(=O)N4CCOCC4)ccc3Cl)cc2)C1 (stereo not drawn) | 12%
2 | Cc1ccccc1Nc1nc(-c2cccnc2)nc2ccccc12.Cl | -30.1%
3 | c1ccc(-c2ccccc2OCCN2CCCC2)cc1 | -26.6%
4 | O=[N+]([O-])c1cccc(S(=O)(=O)NCc2ccccn2)c1 | 15.6%
5 | COc1cccc(NC(=O)COc2ccc(N3CC(C(=O)NCC(C)C)CC3=O)cc2)c1 (stereo not drawn) | 16.9%
6 | Cc1cc(C)n(-c2nc3sc4c(c3c(=O)[nH]2)CCCC4)n1 | 0.511%
7 | CC(C)OC(=O)c1c(NC(=O)C2CC=CCC2C(=O)O)sc2c1CCCCC2 (stereo not drawn) | -21.7%
8 | O=C(COc1ccc2c(c1)C(=O)CC1(CCCCC1)O2)NCc1ccccn1 | -33.9%
9 | Cc1c(S(=O)(=O)Nc2ccc3c(c2)OCCO3)cnn1C | 8.21%
10 | CCCCc1nc2cc(C(=O)N3CCC[C@H]3CO)ccc2o1 | 15.4%
11 | O=C(CSc1ccc2ccccc2n1)Nc1ccc(N2CCOCC2)cc1 | 4.27%
12 | O=C1NC(=S)NC(=O)C1=Cc1ccc2c(c1)CCN2CCCCl | 10.1%
13 | O=S(=O)(c1cccc2nsnc12)N1CCN(c2ccc(F)cc2)CC1 | -31.3%
14 | CCCC(=O)NC(=S)NNC(=O)c1ccc([N+](=O)[O-])cc1 | 8.59%
15 | O=C(CN1CCS(=O)(=O)CC1)NNC(=O)C1CCCCC1 | -4.44%
16 | COc1cccc(-c2ncc3ccccc3c2COC(=O)c2cccs2)c1 | -3.16%
17 | CCN1C[C@]2(C)CC[C@H](OC)[C@]34C2[C@H](OC(C)=O)[C@@]2(OCO[C@@]25C[C@H](OC)[C@H]2C[C@]3(O)C5[C@H]2OC)[C@@H]14 | 39.8%
18 | Cc1ccccc1C(=O)NNc1ncnc2c1cnn2C | 9.81%
19 | COc1ccc(/C=N/Nc2nonc2N)c(OC)c1 | 9.92%
20 | C[N+](C)(C)CC#CCOC(=O)Nc1cccc(Cl)c1.[Cl-] | -0.897%
21 | CSc1nnc(Cc2ccc3c(c2)OCO3)o1 | 1.83%
22 | N#CC1=C(SCc2ccccc2)NC(=O)CC1c1cccc(O)c1 (stereo not drawn) | -17.5%

Row | SMILES | hERG current change (%, negative = inhibition) at 10uM
23 | CCCn1c(=O)c2ccccc2n2c(SCC(=O)/C(C#N)=C(\C)N)nnc12 | 2.18%
24 | NC1=NC(=O)/C(=C/c2cccc(F)c2)S1 | 25.2%
25 | Fc1ccccc1N1CCN(CCCNc2ccc3nncn3n2)CC1 | -10.4%
26 | COc1ccc(CNC(=O)C2CCCN2CCc2ccccc2)cc1OC (stereo not drawn) | -46.9%
27 | CC(C)(C)c1ccccc1NC(=O)c1ccc2c(c1)SC1=NS(=O)(=O)CCN12 | 6.51%
28 | COc1ccc(Cl)cc1NC(=O)NCC1CCN(Cc2ccccc2F)CC1 | -37.7%
29 | COc1cc2nc(Nc3cccc(F)c3)nc(N)c2cc1OC.Cl | -17.7%
30 | Cc1cc2nc(N3CCN(C(=O)c4cccs4)CC3)sc2cc1C | 1.39%
31 | Nc1cccc(C(=O)Nc2cccc3ncccc23)c1 | 23.8%
32 | CCOc1cc(C(=O)Nc2ccccc2N2CCN(S(C)(=O)=O)CC2)cc(OCC)c1OCC | -29.1%
33 | O=C(O)c1ccc(NC(CSCc2cccc(F)c2)C(=O)O)c([N+](=O)[O-])c1 (stereo not drawn) | 23.2%
34 | COc1cccc(N2CCN(C3CC(=O)N(c4ccc(Cl)c(Cl)c4)C3=O)CC2)c1 (stereo not drawn) | -0.0262%
35 | Cc1ccccc1-c1nnc(SCc2ccccc2)o1 | 1.07%
36 | Oc1ccc(Cl)cc1C1=NNC(c2cccs2)C1 (stereo not drawn) | 9.76%
37 | COc1ccc(OCC(=O)Nc2c(C(=O)N3CCC(N4CCCCC4)CC3)oc3ccccc23)cc1 | -87.7%
38 | CN(C)S(=O)(=O)c1ccc(NC(=O)N2CCN(c3cccc(C(F)(F)F)c3)CC2)cc1 | 7.83%
39 | CC1CCCCN1C(=O)CCS(=O)(=O)c1cc2c(cc1Cl)NC(=O)CO2 (stereo not drawn) | -25.6%
40 | CC(=O)Nc1ccc(S(=O)(=O)N2CCN(c3cc(C)nc4ccccc34)CC2)cc1 | -88.5%
41 | Cc1c(NC(=S)N/C(=N/S(=O)(=O)c2ccc(Cl)cc2)c2ccccc2)c(=O)n(-c2ccccc2)n1C | -0.322%
42 | O=C(CSc1ncccn1)NCc1ccc(F)cc1 | 1.15%
43 | COc1ccc(C(=O)Nc2nc(CC(=O)NCCc3ccccc3OC)cs2)cc1 | -6.94%
44 | COc1cc(/C=N/NC(=O)c2ccccc2)ccc1O | -10.1%

Row | SMILES | hERG current change (%, negative = inhibition) at 10uM
45 | CCOc1c(Cl)cc(CNc2nnnn2C)cc1OC | 10%
46 | O=c1cc(O)sc2ccccc12 | 11.3%
47 | Cc1ccc(Cl)cc1NC(=S)N(Cc1ccco1)C(C)c1cccs1 (stereo not drawn) | 5.05%
48 | COCCn1c(=S)[nH]c2ccc(N(C)C)cc2c1=O | -3.99%
49 | CCOc1cc(/C=N/NC(=O)c2cccc([N+](=O)[O-])c2)ccc1OS(=O)(=O)c1ccccc1 | -19%
50 | N/C(=N\OC(=O)C12CC3CC(CC(C3)C1)C2)c1cccnc1 | -7.01%
51 | NC(=O)c1ccc(C2SCC(=O)N2CCc2ccccc2)cc1 (stereo not drawn) | -12.3%
52 | O=C(COc1ccc(C(=S)N2CCOCC2)cc1Cl)Nc1ccccc1Cl | 12.7%
53 | CCOc1ccc(NC(=O)COC(=O)CCS(=O)(=O)c2ccc(C)cc2)cc1 | 8.85%
54 | CC(C)c1ncc(S(=O)(=O)c2ccc(C(F)(F)F)cn2)c(N)n1 | 11.6%
55 | NC(=O)c1ccc(NC(=O)C2CC(=O)N(c3ccc4c(c3)OCCO4)C2)cc1 (stereo not drawn) | 3.81%
56 | Cc1ccc(S(=O)(=O)C/N=C(/NC(=S)N(c2ccccc2)c2ccccc2)c2ccccc2)cc1 | -6.32%
57 | Cc1cccc(N2C(=O)CC(SC(N)=Nc3ccccc3)C2=O)c1 (stereo not drawn) | 20.7%
58 | CCOC(=O)N1CCC(NC(=O)C2CCN(S(=O)(=O)c3cccc4cccnc34)CC2)CC1 | -8.24%
59 | CN1C[C@@H]2C(c3ccccc3)C3(c4ccc(C#N)cc4)CC2(C3)[C@H]1c1ccccc1 (stereo partly drawn) | -32.5%
60 | CC1=NN(c2ccccc2)C(=O)/C1=C/c1cc(C)n(C2CC2)c1C | 18.8%
61 | CCCCN(CCCC)C(=O)CCS(=O)(=O)c1ccc2c(c1)n(C)c(=O)c(=O)n2C | -69.2%
62 | CCOc1cc(NC(=O)c2ccco2)c(OCC)cc1NC(=O)c1ccco1 | -0.564%
63 | COC(=O)c1c(NC(=S)Nc2ccc(CC(=O)O)cc2)sc(C)c1C | 21.2%
64 | Cc1ccccc1OC(C)C(=O)Nc1ccc(S(=O)(=O)N2CCCC2)cc1 (stereo not drawn) | -23.6%
65 | CC1=C(C)CS(=O)N(S(=O)(=O)c2ccc(Cl)cc2)C1 (stereo not drawn) | -1.52%
66 | CN1CCN(C(=O)c2cc3ccccc3oc2=O)CC1 | 6.08%

Row | SMILES | hERG current change (%, negative = inhibition) at 10uM
67 | CN(C)S(=O)(=O)c1cccc(NC(=O)CN2C(=O)NC(Cc3ccccc3)C2=O)c1 (stereo not drawn) | -11.9%
68 | O=C(NCCO)/C(=C/c1ccc(Br)cc1)NC(=O)c1cccs1 | -14%
69 | CCC1(C)NC(=O)N(CC(=O)N2CCN(c3cccc(Cl)c3)CC2)C1=O (stereo not drawn) | 11.2%
70 | CCC(c1nnnn1CCc1ccccc1)N1CCN(c2ccc(OC)cc2)CC1 (stereo not drawn) | 6.23%
71 | CC(=O)Nc1c(O)nc(C)[nH]c1=O | 6.51%
72 | CC(=O)c1sc(NCc2ccc(C)cc2)nc1C | -9.58%
73 | O=C(C1CCCN(S(=O)(=O)Cc2ccccc2)C1)N1CCC(Cc2ccccc2)CC1 (stereo not drawn) | -7.9%
74 | C1N2CN3CN1CN(C2)C3 | -2.53%
75 | Cc1cccn2c(=O)c3c(nc12)N1CCCCCC1C1(C3)C(=O)N(C)C(=O)N(C)C1=O (stereo not drawn) | -1.39%
76 | CSc1nnc2c3cc(C)ccc3n(Cc3ccccc3)c2n1 | 2.55%
77 | Oc1c(Cl)cc(Cl)cc1CNc1nc2ccccc2[nH]1 | 12.7%
78 | Cc1ccc(C)c(Sc2ccc(NC(=O)CCl)cc2)c1 | 4.44%
79 | Cn1c(=O)oc2cc(S(=O)(=O)Nc3ccccc3)ccc21 | 9.35%
80 | CCNC(=O)NNC(=O)C1CC(c2cccnc2)=NO1 (stereo not drawn) | 27.3%
81 | O=C(c1nc2ccccn2c1CNCCn1ccc2ccccc21)N1CCOCC1 | -0.623%
82 | Cc1nc(NCC2CCCO2)nc2c1C(=O)CC(C)C2 (stereo not drawn) | -16.7%
83 | Cc1ccc(NC(=O)C2CCCN(S(=O)(=O)c3cccc4nonc34)C2)cc1 (stereo not drawn) | 20.9%
84 | COc1ccc(NS(=O)(=O)c2ccc(O)c(NC(=O)c3ccc(S(=O)(=O)N4CCCCCC4)cc3)c2)cc1 | 1.73%
85 | Cc1nn2c(-c3ccc(S(=O)(=O)N4CCN(CCO)CC4)o3)nnc2c2ccccc12 | -6.21%
86 | COC(=O)c1ccccc1NC(=O)NCc1ccc2c(c1)OCO2 | -11.4%
87 | CC(=O)Nc1ccc(S(=O)(=O)N(C)c2ccc(OCC(=O)OCC(=O)Nc3ccc(OC(F)F)cc3)cc2)cc1 | -5.79%
